In all, about 33,000 sequences were measured (“E-score (-0.5 to 0.5)”: median about -0.017, highest 2% from about 0.3 on). The list shows a part of the results.
Each sequence was assayed against T1, Sut1 (UniProt P53032) (assay: PBM E-score (8-mer binding enrichment) (E-score (-0.5 to 0.5)); higher = stronger / more preferred TF binding; most listed sequences are background and not binding sites). Details: protein concentration: 200 nM; construct: GST-full length.
T1 sequence: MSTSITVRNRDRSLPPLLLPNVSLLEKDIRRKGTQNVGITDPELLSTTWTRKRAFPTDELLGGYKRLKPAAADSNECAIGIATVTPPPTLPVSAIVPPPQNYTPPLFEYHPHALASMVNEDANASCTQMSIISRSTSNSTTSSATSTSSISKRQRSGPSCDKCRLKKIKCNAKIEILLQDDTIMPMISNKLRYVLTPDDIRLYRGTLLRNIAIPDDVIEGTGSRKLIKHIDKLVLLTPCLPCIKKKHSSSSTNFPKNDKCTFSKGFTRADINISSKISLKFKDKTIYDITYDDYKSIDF
Outline: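 GST-tagged yeast TFs (full-length or DNA-binding domain) were made by PURExpress in vitro transcription/translation and applied at about 100-200 nM to universal all-10-mer Agilent arrays. The arrays were made double-stranded by primer extension, on fresh or once-stripped slides. Bound protein was detected with fluorescent anti-GST, and scans were normalised with masliner. Each ungapped eight-base word, pooled with its reverse complement, received an E-score (modified Wilcoxon-Mann-Whitney statistic) from the Universal PBM Analysis Suite.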

| Sequence | PBM E-score |
| --- | --- |
| CCTCTCCC | -0.32 |
| ATCGATGA | 0.026 |
| ATCTCCAG | -0.0734 |
| CGTATGAG | -0.00806 |
| ATCTGTGA | 0.022 |
| AAAGCACC | -0.116 |
| AAAATCTG | 0.141 |
| TAGTAGCA | -0.0134 |
| CGCTTCCC | -0.302 |
| CCGCGGCA | 0.15 |
| AGCTTGAG | -0.133 |
| CAACCATG | -0.0632 |
| GTGGCTCA | -0.303 |
| TAATGCTA | 0.176 |
| ACAGTCCA | 0.0821 |
| CAAGTCAA | -0.0854 |
| ACAAGAGG | 0.0752 |
| GGTTCCTA | 0.00116 |
| GATGGGCA | -0.0816 |
| AAACGCCA | 0.0327 |
| ATAGGACC | -0.187 |
| AATATGGT | 0.136 |
| AACGTCAA | 0.0659 |
| CTTGTGAA | 0.166 |
| AAGGTGCA | -0.0501 |

| Sequence | PBM E-score |
| --- | --- |
| CGTAGTCC | 0.0807 |
| AAGGAAAG | -0.0232 |
| CCCTTATA | 0.0264 |
| AACGGGGC | 0.00893 |
| CTCAAGTC | 0.00407 |
| GATTGATA | 0.158 |
| AGATTCGA | 0.135 |
| AAAGACCT | -0.175 |
| AGTAGCCA | -0.0389 |
| ATTTTCTC | 0.155 |
| CTGATAGA | 0.0448 |
| CATGCTGC | -0.276 |
| TTATTAAA | 0.273 |
| CTCATGCA | -0.0944 |
| GGCATGCC | 0.073 |
| GGTTCTAC | 0.019 |
| GTCGACTA | 0.165 |
| CTTGCTCC | 0.0671 |
| CTCTATCC | -0.0171 |
| GCTCAAAA | 0.166 |
| AATTCAAG | 0.141 |
| ACTTGGGA | 0.0387 |
| ATAAGATG | 0.112 |
| CATATGTC | -0.0849 |
| ATACCACC | -0.077 |

| Sequence | PBM E-score |
| --- | --- |
| CATGCTAG | -0.118 |
| TGCAACAA | 0.0343 |
| GGCTCACC | -0.291 |
| GTATTAGA | 0.155 |
| GCGGAGCC | 0.113 |
| CGGTGGTC | 0.095 |
| AGCCAGGA | -0.265 |
| ACATTCAT | 0.214 |
| CACTCTAC | -0.0207 |
| ACCAGCAG | -0.384 |
| TCAAACCA | 0.162 |
| ATCGGGCA | -0.195 |
| AAACGACC | 0.0665 |
| AAACCTCA | 0.11 |
| ATTGTGGC | 0.0109 |
| ACACAGGA | 0.0378 |
| GCATGAGC | -0.208 |
| CGTCCAGC | -0.17 |
| CCGTAGTC | 0.0599 |
| GAGGACGC | -0.145 |
| GAGCTGGC | -0.219 |
| GAATGAGC | -0.0518 |
| TGTCGCAA | 0.0597 |
| AACCCTAG | -0.0936 |
| CACGGACC | 0.184 |

| Sequence | PBM E-score |
| --- | --- |
| GTCCGATA | 0.362 |
| AAAACAGC | 0.249 |
| ACGGAGTC | 0.46 |
| AGTATCCG | 0.188 |
| ATATCCGA | 0.294 |
| CACCCCCC | -0.355 |
| CCCCGGTA | 0.0227 |
| CCCTGGGC | -0.324 |
| AGGTACTA | 0.124 |
| CAAACTTC | 0.18 |
| TCGAGACA | -0.0741 |
| CCCCCCCC | -0.484 |
| CCGGGGCC | -0.0306 |
| CGCGGAGA | 0.387 |
| CTGCTACA | 0.0132 |
| AAATGACA | 0.0563 |
| ATTCCTGA | -0.132 |
| TCGACTAA | -0.0425 |
| CCGTGTCA | 0.11 |
| CAAGGAGC | -0.107 |
| CCCACAAG | -0.222 |
| AAGGATCG | 0.00938 |
| ACCTATCC | 0.00738 |
| AATTAATG | 0.273 |
| CATGACTA | -0.15 |

| Sequence | PBM E-score |
| --- | --- |
| AAATTTTC | 0.145 |
| CCTGTTCA | -0.193 |
| CACTTAGC | -0.173 |
| ACTTGTGG | -0.0684 |
| CAACGCAC | -0.0583 |
| ATAATAGC | -0.032 |
| CTAGTCTC | -0.0418 |
| TACACGTA | 0.0499 |
| CCCTACAC | -0.0611 |
| CGTCATCA | -0.0636 |
| AATGAGGT | 0.171 |
| CTGTGAGC | -0.15 |
| GGAGGATA | -0.00419 |
| ATCTCGAA | 0.0769 |
| ATTTCTGG | 0.0933 |
| AGCAGGCC | -0.101 |
| AATAGTCA | 0.102 |
| CTACGCTA | -0.154 |
| AACGTCTC | 0.017 |
| TGAGGGAA | -0.158 |
| ATTTAAGG | 0.141 |
| AATCATGG | -0.029 |
| AACGAGCA | -0.173 |
| ATCCTATG | 0.0966 |
| ATCTCCGG | 0.478 |

| Sequence | PBM E-score |
| --- | --- |
| ATTAATAA | 0.265 |
| GCTCCAAA | -0.057 |
| CATGGTAC | 0.00112 |
| GGATGGGA | -0.12 |
| AGGTCCTA | -0.154 |
| GCTTGGTA | -0.108 |
| CTGATCAC | -0.0813 |
| AAGAACGA | 0.094 |
| CACTTCTA | -0.0188 |
| ACGTCAGG | -0.253 |
| TCGGTACA | -0.151 |
| CGCACTTA | 0.0354 |
| AAAGGCTG | -0.136 |
| CATCGGGG | -0.00411 |
| AAAAGCCA | 0.238 |
| CCCGTGAG | -0.0708 |
| TAGTACAA | 0.213 |
| CCCGCAGG | -0.147 |
| TGATCCCA | -0.0775 |
| GCTTTGAA | -0.00621 |
| ATGTAGTC | 0.18 |
| GGTAACCA | -0.174 |
| CGGAGTAC | 0.487 |
| CACTACAG | -0.00583 |
| CCATTCAG | -0.0279 |

| Sequence | PBM E-score |
| --- | --- |
| CAGATGCC | -0.268 |
| CGCGGGCC | 0.0313 |
| GACGGGGA | 0.00167 |
| ACGTGAAC | -0.232 |
| ATTGTGGA | 0.0202 |
| CGTGGAAC | -0.0578 |
| GATGTTAA | 0.0896 |
| CTCCGTTA | 0.335 |
| AATCAATC | 0.181 |
| ACAGATAA | 0.207 |
| AGCGTACC | -0.193 |
| GTATGCGA | 0.0317 |
| TCGCCTCA | -0.0147 |
| CCCGAATC | 0.0311 |
| ACACTGTA | 0.111 |
| CCTTACTA | 0.0567 |
| TCCCAGAA | -0.0934 |
| TCTCTCCA | -0.0705 |
| ATATTCGA | 0.0265 |
| ATTATTTA | 0.347 |
| AAGCGCAG | -0.103 |
| ACGTGTAA | 0.0397 |

From the supplement of paper PMC3334620
